# Measurements reported in paper PMC5900715 (Genes & Development, 2018).
# B1: mutant p53 CTD_([…]/L344A) (domain or fragment)
# chain: not shown
# Target: MDM2 NTD polypeptide (residues 10–139) (UniProt Q00987 10-139)
# Experiment: ITC
# UniProt Q00987, sequence (Q00987 10-139): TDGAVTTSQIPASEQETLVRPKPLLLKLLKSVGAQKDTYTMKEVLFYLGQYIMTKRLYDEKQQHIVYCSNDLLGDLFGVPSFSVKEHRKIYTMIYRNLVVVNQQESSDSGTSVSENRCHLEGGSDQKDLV
binder,measurement,value
B1,Kd,1700 nM
